# Assays:
# C3 [1] = biological target: C3 (Homo sapiens, UniProt P01024); test: Binding affinity by Biacore, human C3; conditions: from Table 15
# Method: The binding affinities of exemplary anti-C3 antibodies to human C3 and cyno C3 were measured using a Biacore system (GE Healthcare LifeSciences). Briefly, anti-Fc antibody (Sigma-Aldrich) was immobilized on all four flow cells of a CM5 chip using amine coupling reagents (GE Healthcare LifeSciences). Antibodies were captured on flow cells 2, 3, and 4 using flow cell 1 as a reference. Concentrations ranging from 0.62-40 nM of human C3 or cyno C3 were injected at a flow rate of 50 μL/min at 37° C. Kinetic data were collected over time and fit using the simultaneous global fit equation to yield affinity constants (KD values) for each antibody.
# More recently, a number of compstatin analogs and derivatives have been generated and studied. […] A Biacore system was used to assess the binding affinities of the different molecules to human C3. […] Evaluation of COMP or COMP-PEG binding to human C3 was carried out as follows. Human C3 was immobilized on flow cell 2 of a CM5 chip using amine-coupling reagents (GE Healthcare LifeSciences) and flow cell 1 (immobilized with a similar amount of human IgG) was used as a reference. […] Similar experiments were set up with COMP-PEG (concentration range of 25-400 nM) for evaluation at 37° C. COMP-PEG binding to human C3 was also evaluated at 25° C. with modifications. […]
# [2] = Viscosity at high formulation concentration (RheoSense); assay type: physicochemical
# Method: The first buffer formulation was 10 mM sodium phosphate, 40 mM sodium chloride, 0.03% polysorbate 20, and 5% sucrose at pH 6.2. […] The second buffer formulation was 10 mM histidine HCl, 10% α,α trehalose dihydrate, and 0.01% polysorbate 20 at pH 5.5.
# [3] = Elevated pH stress test, deamidation at N55 of heavy chain CDR2; assay type: physicochemical
# [4] = Pharmacokinetics after intravitreal injection in rabbits; assay type: in vivo, New Zealand White rabbits; conditions: rabbit
# Method: Samples were taken at 1 and 8 hours and on days 2, 4, 8, 15 and 22 (4 eyes/time point).
# C3 [5] = test: LPS-induced complement activation model in the eye; assay type: in vivo, cynomolgus monkeys; conditions: 5 mg/eye IVT on Day 1, LPS 30 ng/eye IVT on Day 3, samples Days 5, 8, 13, 18
# Description: In normal cynomolgus monkeys, C3 activation is minimal and thus the inhibitory effects of an anti-C3 antibody on C3 activation cannot be reliably evaluated in this setting. It is known that LPS can activate the complement system and a pilot study confirmed that complement C3 was activated by intravitreal injection (IVT) of LPS.
# Twelve normal female cynomolgus monkeys (ages ranging from 8 to 17 years old) were assigned to 2 groups with 6 animals per group. A baseline sampling of aqueous humor was conducted on Day −3. […] On Day 3, animals were injected intravitreously with LPS at 30 ng/eye at a volume of 50 μl/eye. On Days 5, 8, 13, and 18 aqueous humor samples were taken. C3a concentrations in the aqueous humor were determined using a Complement C3a Human ELISA Kit (Invitrogen) following the manufacturer's instructions.
# [6] = 1.0 mg single intravitreal dose, vitreous humor
# [7] = 7.5 mg single intravitreal dose, vitreous humor
# UniProt P01024, sequence (P01024 23-1663): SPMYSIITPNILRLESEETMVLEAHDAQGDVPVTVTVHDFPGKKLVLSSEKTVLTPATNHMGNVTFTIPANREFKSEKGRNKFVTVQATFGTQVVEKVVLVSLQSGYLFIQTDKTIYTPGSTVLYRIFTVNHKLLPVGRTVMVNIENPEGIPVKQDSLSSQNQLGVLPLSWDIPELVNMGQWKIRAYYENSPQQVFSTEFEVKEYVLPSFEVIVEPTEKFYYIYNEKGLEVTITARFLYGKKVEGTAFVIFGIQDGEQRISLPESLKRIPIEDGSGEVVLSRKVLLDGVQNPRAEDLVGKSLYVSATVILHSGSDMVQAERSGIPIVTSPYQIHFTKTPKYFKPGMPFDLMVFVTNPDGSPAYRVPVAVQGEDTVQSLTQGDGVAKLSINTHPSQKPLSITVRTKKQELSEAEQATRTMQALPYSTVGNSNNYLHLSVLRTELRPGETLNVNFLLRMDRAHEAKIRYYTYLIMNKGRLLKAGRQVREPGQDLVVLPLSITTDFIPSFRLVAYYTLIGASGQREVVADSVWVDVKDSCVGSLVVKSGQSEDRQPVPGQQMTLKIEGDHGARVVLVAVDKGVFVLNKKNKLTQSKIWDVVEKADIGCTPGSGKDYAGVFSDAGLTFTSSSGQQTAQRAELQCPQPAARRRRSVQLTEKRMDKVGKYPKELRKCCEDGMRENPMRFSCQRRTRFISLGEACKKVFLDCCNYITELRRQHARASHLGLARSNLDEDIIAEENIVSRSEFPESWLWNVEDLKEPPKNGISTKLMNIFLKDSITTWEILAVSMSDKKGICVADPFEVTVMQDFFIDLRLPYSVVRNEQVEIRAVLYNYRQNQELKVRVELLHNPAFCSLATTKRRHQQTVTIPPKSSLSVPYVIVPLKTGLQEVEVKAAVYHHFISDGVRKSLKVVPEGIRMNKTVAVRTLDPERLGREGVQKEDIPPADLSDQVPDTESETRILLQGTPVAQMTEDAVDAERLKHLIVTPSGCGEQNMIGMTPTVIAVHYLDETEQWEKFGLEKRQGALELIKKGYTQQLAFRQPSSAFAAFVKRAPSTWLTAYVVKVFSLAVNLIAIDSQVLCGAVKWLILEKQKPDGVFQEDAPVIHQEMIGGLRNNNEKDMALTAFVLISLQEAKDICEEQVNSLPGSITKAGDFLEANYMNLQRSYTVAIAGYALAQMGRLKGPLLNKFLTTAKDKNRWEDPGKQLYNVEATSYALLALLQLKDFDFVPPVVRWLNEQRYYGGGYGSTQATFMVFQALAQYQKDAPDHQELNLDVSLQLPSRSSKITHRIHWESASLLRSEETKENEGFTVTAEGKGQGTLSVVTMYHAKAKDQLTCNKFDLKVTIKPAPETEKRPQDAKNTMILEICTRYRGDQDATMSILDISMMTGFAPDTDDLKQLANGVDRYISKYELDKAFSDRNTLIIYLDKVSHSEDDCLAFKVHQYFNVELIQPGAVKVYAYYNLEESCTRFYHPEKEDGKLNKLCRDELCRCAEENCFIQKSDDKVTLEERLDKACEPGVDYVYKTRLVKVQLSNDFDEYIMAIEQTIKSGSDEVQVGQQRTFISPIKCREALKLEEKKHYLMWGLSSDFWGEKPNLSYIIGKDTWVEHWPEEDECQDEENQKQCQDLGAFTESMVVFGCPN
molecule,measurement,setting,value
"Hz38G10: humanized 38G10; VH SEQ ID NO:20, VL SEQ ID NO:25; heavy chain SEQ ID NO:27, light chain SEQ ID NO:31 (antibody) heavy: QVQLVQSGAEVKKPGASVKVSCKASGYTFTDFYMDWVRQAPGQRLEWMGYIYPHNGGTTYNQQFTGRVTITVDKSASTAYMELSSLRSEDTAVYYCARRGGFDFDYWGQGTLVTVSSASTKGPSVFPLAPSSKSTSGGTAALGCLVKDYFPEPVTVSWNSGALTSGVHTFPAVLQSSGLYSLSSVVTVPSSSLGTQTYICNVNHKPSNTKVDKKV[here human IgG1 Fc with E233A L235A (EU numbers) without letters] light: DIQMTQSPSSLSASVGDRVTITCKASENVDTYVSWYQQKPGKAPKLLIYGASNRYTGVPSRFSGSGSGTDFTFTISSLQPEDIATYHCGQSHSYPLTFGQGTKLEIKRTVAAPSVFIFPPSDEQLKSGTASVVCLLNNFYPREAKVQWKVDNALQSGNSQESVTEQDSKDSTYSLSSTLTLSKADYEKHKVYACEVTHQGLSSPVTKSFNRGEC","affinity to human C3, times greater than a compstatin derivative or the pegylated version",C3 [1],50-80 times
same,viscosity,"[2]; 152 mg/mL in 10 mM histidine HCl, 10% α,α trehalose dihydrate, 0.01% polysorbate 20, pH 5.5",17.6 mPa-s
same,viscosity,"[2]; 164 mg/mL in 10 mM sodium phosphate, 40 mM sodium chloride, 0.03% polysorbate 20, 5% sucrose, pH 6.2",15.2 mPa-s
same,increase of deamidation at N55 from Day 0 to Day 7,[3]; pH 8.5,18.5%
same,"deamidation at the asparagine N55, Day 0","[3]; pH 8.5, Day 0",29.75%
same,"deamidation at the asparagine N55, Day 7","[3]; pH 8.5, Day 7",48.23%
same,AUC,[4]; [6],3140 µg·days/mL
same,Cmax,[4]; [6],541 µg/mL
same,AUC,[4]; [7],33049 µg·days/mL
same,Cmax,[4]; [7],5680 µg/mL
same,T1/2,[4]; [7],127 h
same,"distribution to the retina, AUC as % of the vitreous humor",[4]; intravitreal,approximately 20%
same,"distribution to the retina, Cmax as % of the vitreous humor",[4]; intravitreal,approximately 20%
same,half-life in the vitreous humor,"[4]; intravitreal, 1 mg or 7.5 mg",96 to 120 h
same,C3a in the aqueous humor as compared to vehicle,C3 [5],Significantly lower levels of C3a

# — patent US11767359B2, “C3-binding agents and methods of use thereof” (NGM Biopharmaceuticals, Inc., priority 2018, dated 2023)
